# Some of the results follow.
# Test system: HSkMC (human skeletal muscle cells)
# Assay: cytotoxicity call (relative viability < 0.9)
# Details: 10 µM
row,SMILES,cytotoxicity call
1,C[C@H](CO)N1C[C@H](C)[C@@H](CN(C)S(=O)(=O)c2cn(C)cn2)OCc2cnnn2CCCC1=O,inactive
2,CC(C)NC(=O)Nc1ccc2c(c1)C(=O)N([C@H](C)CO)C[C@@H](C)[C@H](CN(C)C(=O)Nc1ccc(C(F)(F)F)cc1)OCCCC[C@@H](C)O2,inactive
3,C[C@H]1CN([C@@H](C)CO)C(=O)Cc2cc(NC(=O)Cc3cn(C)c4ccccc34)ccc2O[C@H]1CN(C)S(=O)(=O)c1cn(C)cn1,inactive
4,C[C@H](CO)N1C[C@H](C)[C@H](CN(C)Cc2ccc3c(c2)OCO3)OCCCC[C@H](C)Oc2ccc(NC(=O)C3CCCCC3)cc2C1=O,inactive
5,C[C@@H]1CN([C@H](C)CO)C(=O)c2cc(NC(=O)Nc3cccc4ccccc34)ccc2O[C@H]1CN(C)Cc1ccc(Oc2ccccc2)cc1,inactive
6,O=C1/C(=C/c2cn(-c3ccccc3)nc2-c2ccc(OCc3ccccc3F)cc2)SC(=S)N1CCS(=O)(=O)O,inactive
7,C[C@H](CO)N1C[C@H](C)[C@@H](CN(C)S(=O)(=O)c2ccc(F)cc2)OCCCC[C@H](C)Oc2ccc(NC(=O)CCC(F)(F)F)cc2C1=O,inactive
8,CN1C(=O)c2cc(NC(=O)C3CCOCC3)ccc2OC[C@@H]2O[C@H](CC(=O)NCc3ccc4c(c3)OCO4)CC[C@H]21,inactive
9,C[C@@H]1CCCCO[C@H](CN(C)Cc2ccc(C(F)(F)F)cc2)[C@H](C)CN([C@H](C)CO)C(=O)c2cc(NC(=O)Cc3ccccc3)ccc2O1,inactive
10,Cc1ccc(S(=O)(=O)Nc2ccc3c(c2)C(=O)N([C@@H](C)CO)C[C@@H](C)[C@H](CN(C)Cc2ccc(C(F)(F)F)cc2)OCCCC[C@H](C)O3)cc1,inactive
11,CCc1nc2ccc(C(=O)NC3CCN(Cc4ccccc4)CC3)cn2c1N(C)Cc1cc2ccccc2s1,active
12,C[C@@H]1CCCCO[C@H](CN(C)C(=O)CCCN(C)C)[C@@H](C)CN([C@@H](C)CO)C(=O)c2cc(NC(=O)Nc3cccc4ccccc34)ccc2O1,inactive
13,Cc1cc(C(=O)Nc2ccc3c(c2)C(=O)N(C)[C@H]2CC[C@H](CC(=O)NCC(F)(F)F)O[C@@H]2CO3)no1,inactive
14,COc1ccccc1C#Cc1cnc2c(c1)C(=O)N([C@H](C)CO)C[C@@H](C)[C@H](CN(C)C(=O)c1ccc3c(c1)OCO3)O2,inactive
15,O=C(C[C@H]1CC[C@H]2[C@@H](COC[C@H](O)CN2S(=O)(=O)c2cccc(F)c2)O1)NCCCN1CCOCC1,inactive
16,C[C@H](CO)N1C[C@H](C)[C@H](CN(C)Cc2ccc(-c3ccccc3)cc2)Oc2ccc(NC(=O)Nc3cccc4ccccc34)cc2CC1=O,inactive
17,Cc1ccc(S(=O)(=O)Nc2ccc3c(c2)C(=O)N([C@H](C)CO)C[C@@H](C)[C@@H](CN(C)Cc2ccc(C(=O)O)cc2)OCCCC[C@@H](C)O3)cc1,inactive
18,C=CC[C@@H](CC(=O)N(CCO)Cc1ccccc1)C(=O)N[C@H](COC(=O)[C@@H](CC=C)Cc1ccc(F)cc1)c1ccccc1,inactive
19,C[C@@H]1CN([C@@H](C)CO)C(=O)Cc2cc(NC(=O)Cn3cnnn3)ccc2O[C@@H]1CN(C)C(=O)Nc1ccc2c(c1)OCO2,inactive
20,Cc1noc(C)c1S(=O)(=O)Nc1cccc2c1O[C@H](CN(C)S(=O)(=O)c1cn(C)cn1)[C@H](C)CN([C@H](C)CO)C2=O,inactive

row,SMILES,cytotoxicity call
1,C[C@H]1CCCCO[C@@H](CN(C)Cc2ccc(C(F)(F)F)cc2)[C@@H](C)CN([C@@H](C)CO)C(=O)c2cc(NS(=O)(=O)c3cn(C)cn3)ccc2O1,inactive
2,COc1ccc(NC(=O)Nc2ccc3c(c2)C(=O)N([C@@H](C)CO)C[C@@H](C)[C@H](CN(C)C(=O)Nc2ccc(C(F)(F)F)cc2)OCCCC[C@@H](C)O3)cc1,inactive
3,O=C(C[C@H]1C[C@@H]2c3cc(NS(=O)(=O)c4ccc(F)cc4)ccc3O[C@@H]2[C@@H](CO)O1)N1CCOCC1,inactive
4,C[C@@]1(N)CCCC[C@@H]1C(=O)O,inactive
5,C[C@H](CO)N1C[C@H](C)[C@@H](CN(C)C(=O)c2cccnc2)Oc2cc(C#CC3(O)CCCC3)ccc2S1(=O)=O,inactive
6,Cc1ccc(S(=O)(=O)N(C)C[C@H]2Oc3c(NC(=O)c4cc(C)nn4C)cccc3C(=O)N([C@H](C)CO)C[C@@H]2C)cc1,inactive
7,O=C(C[C@@H]1C[C@H]2c3cc(NC(=O)C4CCOCC4)ccc3O[C@H]2[C@@H](CO)O1)NCc1cc(F)ccc1F,inactive
8,COC(=O)c1c2oc(c1C(=O)OC)C(=O)N[C@@H](Cc1ccccc1)Cn1cc(nn1)[C@@H](Cc1ccccc1)NC(=O)N[C@H](COC(=O)NCCCCCC(=O)NO)CC2,inactive
9,O=C(C=Cc1ccccc1)c1ccc(O)cc1O,inactive
10,C[N+](C)(C)CCCC[C@@H]1NC(=O)[C@@H]2C[C@H](C(=O)NCCCCCCNC(=O)CS)[C@H](c3cccc(OCCO)c3)N2C1=O,inactive
11,CN1CCN(CCCN2c3ccccc3Sc3ccc(C(F)(F)F)cc32)CC1.Cl.Cl,inactive
12,CO[C@@H]1CN(C)C(=O)c2cc(NC(=O)c3ccc(F)cc3)ccc2OC[C@@H](C)N(C(=O)CN(C)C)C[C@H]1C,inactive
13,C[C@H]1CN([C@@H](C)CO)C(=O)c2cc(-c3cccc(C#N)c3)cnc2O[C@@H]1CN(C)C(=O)C1CCOCC1,inactive
14,Cc1noc(C)c1S(=O)(=O)Nc1ccc2c(c1)C(=O)N([C@@H](C)CO)C[C@@H](C)[C@@H](CN(C)CC1CCCCC1)OCCCC[C@H](C)O2,inactive
15,C[C@@H]1CN([C@@H](C)CO)C(=O)c2cccc(NS(C)(=O)=O)c2O[C@@H]1CN(C)Cc1ccc2c(c1)OCO2,inactive
16,COc1ccc([C@H]2CC([C@@H]3C(=O)N[C@H]4CC[C@H](Br)C[C@@H]4[C@H]3c3ccccc3)=NN2C(=O)c2ccccc2)cc1,inactive
17,C[C@@H]1CN([C@H](C)CO)C(=O)Cc2cc(NC(=O)Nc3cccc4ccccc34)ccc2O[C@H]1CN(C)Cc1ccc(C(=O)Nc2ccccc2N)cc1,inactive
18,C[C@H](CO)N1C[C@H](C)[C@@H](CN(C)C(=O)C2CCCCC2)OCCCC[C@H](C)Oc2ccc(NC(=O)Cc3ccccc3)cc2C1=O,inactive
19,C[C@H](CO)N1C[C@H](C)[C@H](CN(C)S(=O)(=O)c2cn(C)cn2)Oc2ccc(NC(=O)CCN3CCOCC3)cc2C1=O,inactive
20,O=C(Cc1ccncc1)NCC[C@@H]1CC[C@H](NC(=O)C2CCOCC2)[C@@H](CO)O1,inactive
